According to the supplement of paper PMC6206098:
± gives the uncertainty stated by the source. The sequences are guide strands of siRNAs; only the seed at positions 2 to 7 varies.

Legend:
3LL = assay: cell viability relative to siNT1 control; higher = less toxic; details: concentration: 10 nM; 96 h; Mus musculus;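 also: Luminescence-based viability of cells reverse transfected in 384-well plates with lipid-complexed siRNAs built on a non-toxic 19mer backbone whose passenger strand carries 2′-O-methyl groups at positions 1 and 2, triplicates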
HeyA8 = assay: cell viability relative to lipid-only control; HeyA8 human ovarian and H460 human lung cancer; M565 mouse liver and 3LL mouse lung cancer; siNT1 is a non-toxic control siRNA; higher = less toxic; details: concentration: 10 nM; 96 h; Homo sapiens
M565 = assay: as above; details: concentration: 10 nM; 96 h; Mus musculus
H460 = assay: as above; details: concentration: 10 nM; 96 h; Homo sapiens
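For cell viability relative to lipid-only control in this document: reverse lipid transfection in 384-well plates, in triplicate, of duplexes on a non-toxic 19mer backbone with passenger strand 2′-O-methylated at positions 1 and 2, luminescence viability read-out.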

Sequence | cell viability (3LL) [%] | cell viability (HeyA8) [%] | cell viability (M565) [%] | cell viability (H460) [%]
UGAAGGCACAUGUAAACCAAA | 4.28 ± 1.8 | 10.6 ± 1.8 | 6.41 ± 2.5 | 21.7 ± 3.8
UGAAGGGACAUGUAAACCAAA | 23.1 ± 5.8 | 53.6 ± 10 | 48.1 ± 1.8 | 49.7 ± 6.1
UGAAGGUACAUGUAAACCAAA | 2.29 ± 0.57 | 26.4 ± 2.5 | 12 ± 1.7 | 56.1 ± 7.8
UGAAGUAACAUGUAAACCAAA | 100 ± 13 | 82.8 ± 5.7 | 56.9 ± 4.3 | 71.2 ± 8.7
UGAAGUCACAUGUAAACCAAA | 31.7 ± 9.3 | 3.83 ± 0.38 | 4.24 ± 0.27 | 12 ± 1.4
UGAAGUGACAUGUAAACCAAA | 88.1 ± 18 | 65.2 ± 5.1 | 38.6 ± 5.3 | 74.7 ± 13
UGAAGUUACAUGUAAACCAAA | 42.5 ± 8.2 | 39 ± 2.1 | 18.4 ± 3.1 | 58 ± 8.7
UGAAUAAACAUGUAAACCAAA | 110 ± 19 | 96 ± 2.5 | 67.2 ± 15 | 89.7 ± 16
UGAAUACACAUGUAAACCAAA | 80.7 ± 10 | 55.2 ± 3.8 | 78.7 ± 11 | 57.4 ± 6.2
UGAAUAGACAUGUAAACCAAA | 106 ± 14 | 96.4 ± 8.4 | 40.3 ± 4 | 79.7 ± 17
UGAAUAUACAUGUAAACCAAA | 106 ± 15 | 49.5 ± 4.6 | 54.5 ± 3.6 | 73.7 ± 26
UGAAUCAACAUGUAAACCAAA | 89.6 ± 24 | 58.7 ± 3.8 | 41.8 ± 6.5 | 91.1 ± 13
UGAAUCCACAUGUAAACCAAA | 18.6 ± 7.2 | 39.5 ± 1.4 | 13 ± 3.6 | 42.3 ± 6.5
UGAAUCGACAUGUAAACCAAA | 94 ± 22 | 71.6 ± 5.3 | 60.8 ± 10 | 77.8 ± 25
UGAAUCUACAUGUAAACCAAA | 73 ± 18 | 61.01 ± 0.47 | 44.2 ± 3.3 | 69.4 ± 8.7
UGAAUGAACAUGUAAACCAAA | 84.6 ± 16 | 59.5 ± 9.5 | 40.6 ± 5.9 | 59.9 ± 6.3
UGAAUGCACAUGUAAACCAAA | 29.6 ± 5.3 | 59.9 ± 6 | 17 ± 2.3 | 65.3 ± 12
UGAAUGGACAUGUAAACCAAA | 14.8 ± 5.3 | 13.2 ± 0.51 | 6.05 ± 0.3 | 41.4 ± 2.7
UGAAUGUACAUGUAAACCAAA | 99.4 ± 13 | 13.2 ± 2.3 | 53.3 ± 9.5 | 53.3 ± 16
UGAAUUAACAUGUAAACCAAA | 105 ± 14 | 92.5 ± 7.5 | 73.4 ± 7.8 | 61.3 ± 3.3

Sequence | cell viability (3LL) [%] | cell viability (HeyA8) [%] | cell viability (M565) [%] | cell viability (H460) [%]
UGAAUUCACAUGUAAACCAAA | 62.2 ± 16 | 40 ± 3.4 | 11.9 ± 1.8 | 50.7 ± 1.5
UGAAUUGACAUGUAAACCAAA | 96.1 ± 14 | 71 ± 7.1 | 40.9 ± 1.7 | 59.6 ± 5.4
UGAAUUUACAUGUAAACCAAA | 104 ± 14 | 67.8 ± 2.4 | 48.8 ± 4.8 | 62.1 ± 9.4
UGACAAAACAUGUAAACCAAA | 92.2 ± 16 | 102 ± 1.9 | 74.8 ± 23 | 67.6 ± 17
UGACAACACAUGUAAACCAAA | 13.3 ± 6.2 | 71.47 ± 0.69 | 30.8 ± 3.8 | 57.4 ± 14
UGACAAGACAUGUAAACCAAA | 77.2 ± 24 | 94.5 ± 3.1 | 54.9 ± 12 | 47.7 ± 9.3
UGACAAUACAUGUAAACCAAA | 93.5 ± 21 | 74.1 ± 2.1 | 44.7 ± 7.3 | 73.7 ± 3.4
UGACACAACAUGUAAACCAAA | 88.6 ± 11 | 50.8 ± 8.8 | 34.8 ± 2 | 48.3 ± 6.3
UGACACCACAUGUAAACCAAA | 20.3 ± 4.7 | 21.4 ± 0.62 | 4.96 ± 1.3 | 28.4 ± 7.4
UGACACGACAUGUAAACCAAA | 61.7 ± 6.8 | 78.5 ± 14 | 42 ± 16 | 52.4 ± 8
UGACACUACAUGUAAACCAAA | 51.5 ± 5.5 | 35.6 ± 3.9 | 22 ± 6.8 | 29.5 ± 1.3
UGACAGAACAUGUAAACCAAA | 41.3 ± 2 | 24.1 ± 1.2 | 9.01 ± 1.6 | 53.5 ± 13
UGACAGCACAUGUAAACCAAA | 25 ± 2.6 | 2.94 ± 0.64 | 6.78 ± 2.7 | 20.7 ± 3.1
UGACAGGACAUGUAAACCAAA | 23.3 ± 2.2 | 93.1 ± 4.4 | 17.25 ± 0.093 | 32.9 ± 4
UGACAGUACAUGUAAACCAAA | 2.33 ± 0.12 | 10.2 ± 0.79 | 3.32 ± 0.45 | 27 ± 4.9
UGACAUAACAUGUAAACCAAA | 94.3 ± 21 | 102 ± 11 | 72.9 ± 7 | 75.6 ± 12
UGACAUCACAUGUAAACCAAA | 2.38 ± 0.28 | 5.09 ± 0.36 | 12.8 ± 0.94 | 13.1 ± 1.5
UGACAUGACAUGUAAACCAAA | 91.8 ± 14 | 88.7 ± 4.4 | 49.9 ± 15 | 59.8 ± 6.5
UGACAUUACAUGUAAACCAAA | 92.1 ± 16 | 66.2 ± 2.1 | 29 ± 2.4 | 60.6 ± 7.2
UGACCAAACAUGUAAACCAAA | 70.5 ± 10 | 57.4 ± 14 | 25.8 ± 3 | 67.3 ± 4.5

Sequence | cell viability (3LL) [%] | cell viability (HeyA8) [%] | cell viability (M565) [%] | cell viability (H460) [%]
UGACCACACAUGUAAACCAAA | 17.5 ± 0.26 | 37.4 ± 2.4 | 7.18 ± 2.5 | 32.7 ± 5.7
UGACCAGACAUGUAAACCAAA | 16.1 ± 3.2 | 28.7 ± 3.7 | 6.74 ± 0.59 | 28.1 ± 3.4
UGACCAUACAUGUAAACCAAA | 54.1 ± 6.8 | 66.6 ± 3.4 | 4.95 ± 0.57 | 52.3 ± 4.9
UGACCCAACAUGUAAACCAAA | 33.7 ± 2.5 | 76.7 ± 3.2 | 27.4 ± 9.8 | 47.6 ± 3.2
UGACCCCACAUGUAAACCAAA | 6.47 ± 1.8 | 30.8 ± 6.1 | 8.1 ± 1.1 | 24.9 ± 0.54
UGACCCGACAUGUAAACCAAA | 55.7 ± 6.7 | 74.7 ± 4 | 36.4 ± 4.3 | 50.9 ± 4
UGACCCUACAUGUAAACCAAA | 15.6 ± 3.4 | 31 ± 5.7 | 15.6 ± 2.1 | 26.89 ± 0.15
UGACCGAACAUGUAAACCAAA | 73.7 ± 6.2 | 79.7 ± 10 | 28.8 ± 12 | 52.4 ± 6.9
UGACCGCACAUGUAAACCAAA | 30.4 ± 6.3 | 44.6 ± 6.5 | 4.85 ± 1.2 | 56.1 ± 12
UGACCGGACAUGUAAACCAAA | 37.6 ± 4.9 | 64.5 ± 12 | 32.2 ± 5.7 | 63.5 ± 9.5
UGACCGUACAUGUAAACCAAA | 75.5 ± 8.8 | 77.7 ± 4.7 | 8.89 ± 3.9 | 49.5 ± 3.3
UGACCUAACAUGUAAACCAAA | 59.4 ± 2.6 | 86.1 ± 6.1 | 43.1 ± 3.6 | 60.2 ± 6.1
UGACCUCACAUGUAAACCAAA | 14.3 ± 1.9 | 81 ± 5.7 | 10.6 ± 3 | 38.7 ± 8.2
UGACCUGACAUGUAAACCAAA | 47.7 ± 11 | 61 ± 9.3 | 41 ± 8.3 | 50 ± 14
UGACCUUACAUGUAAACCAAA | 30.9 ± 0.61 | 18.5 ± 0.52 | 13.6 ± 2.8 | 25 ± 1.8
UGACGAAACAUGUAAACCAAA | 96 ± 13 | 22.6 ± 1.9 | 52.6 ± 12 | 63.4 ± 9.2
UGACGACACAUGUAAACCAAA | 37.2 ± 2.2 | 46 ± 4.2 | 13.5 ± 2.5 | 38.9 ± 5.8
UGACGAGACAUGUAAACCAAA | 79.5 ± 3.5 | 76.4 ± 6.1 | 28.7 ± 0.5 | 70.3 ± 1.2
UGACGAUACAUGUAAACCAAA | 95.1 ± 17 | 36.6 ± 3.9 | 30 ± 3.9 | 45.8 ± 4.3
UGACGCAACAUGUAAACCAAA | 84.2 ± 12 | 111 ± 9.8 | 61.8 ± 12 | 86.7 ± 10
